Test results published in PubChem BioAssay AID1508642 (National Center for Advancing Translational Sciences (NCATS), 2021).
The campaign covered roughly 43,000 compounds. About 200 (0.47%) were called active. Roughly 12% stayed inconclusive and do not appear here. The call rests on the fitted dose curve; in most records, active means well fitted cell-killing curve with a large enough effect; inconclusive means small, poorly fitted or top-dose-only effect, or effect the other way; inactive means flat fitted curve, though single readings scatter. The list shows a part of the results.

experiment: Cell viability qHTS assay in S16 Pmp22-F2sN cells; details: S16 Pmp22-F2sN Schwann cells (luciferase reporters placed in the Pmp22 gene) viability, CellTiter-Glo, 24 h; series mostly up to 57.5 µM; activity change, negative = cytotoxicity: at the top concentration; further: nearly all actives have a fitted effect of over 65% in size
In short: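 S16 Schwann cells carrying the Pmp22-F2sN reporter, seeded in 1536-well format, were exposed to library compounds for 24 h at 37C. Viability was read as CellTiter-Glo luminescence after 15 min at room temperature.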
On the % scale 0 is the no-effect control and ±100 the full control effect; potency means the concentration at half of the fitted maximal effect.

Row | SMILES | activity change, negative = cytotoxicity | Potency
1 | CCn1c(=O)cc(SCC(=O)NCc2ccc(C)cc2)c2ccccc21 | inactive: 1.97% | 
2 | Nc1ccc2oc(Cc3ccc(Cl)cc3)nc2c1 | inactive: -1.5% | 
3 | COc1ccc(C)cc1NC(=O)Cc1c(C(=O)O)c(C)cn1C | inactive: 7.73% | 
4 | COCCNc1ccc(-c2nc(-c3ccccn3)no2)cc1[N+](=O)[O-] | inactive: 18.3% | 
5 | CCCC(=O)Nc1ccc2nc(SCc3ccc(C)cc3)sc2c1 | inactive: 5.92% | 
6 | O=C(NCc1ccc(Cl)cc1)c1ccc2c(c1)N(Cc1ccccc1F)C(=O)c1ccccc1S2=O (configuration not stated) | inactive: 19.8% | 
7 | CCc1ccc(CNC(=O)c2ccc(CS(=O)(=O)Cc3cccc(C)c3)o2)cc1 | inactive: -6.98% | 
8 | CCCCNc1nc2c(c(=O)n(Cc3ccccc3)c(=O)n2C)n1C | inactive: -0.552% | 
9 | Cc1ccc(Cl)cc1N1CCN(C(=O)C2CCCN(Cc3nc(-c4cccc(Cl)c4)oc3C)C2)CC1 (configuration not stated) | inactive: 3.09% | 
10 | COc1ccc(N(C)C(=O)c2cc3c(s2)-c2ccccc2OC3)cc1 | inactive: -0.8% | 
11 | O=C(c1ccc(Cl)cc1)c1cn(Cc2ccccc2)c2cc3c(cc2c1=O)OCCO3 | inactive: -25.9% | 
12 | Cc1ccc(NC(=O)Cn2c(=O)ccc3cc(S(=O)(=O)N4CCCC4)ccc32)cc1N(C)C | inactive: -9.8% | 
13 | Cc1cc(C(=O)Nc2cccc(C)c2C)c2c(C)nn(-c3cccc(F)c3)c2n1 | inactive: -3.24% | 
14 | COc1ccc2c(c1)c1c(c(=O)n(-c3ccc(F)c(Cl)c3)c(=O)n1Cc1cccc(C)c1)n2C | inactive: -1.84% | 
15 | Cc1ccc2c(c1)C(=O)OC(C(=O)Nc1ncc(Cc3ccccc3Cl)s1)C2 (configuration not stated) | inactive: 15.7% | 
16 | Cc1ccc(-c2cc(-c3ccc4c(c3)NC(=O)CO4)nc3c2COc2ccccc2-3)cc1 | inactive: 8.25% | 
17 | COc1ccc(CNC(=O)Cn2nc3c(cc2=O)CCCC3)cc1 | inactive: 13.8% | 
18 | Cc1cc(C)c2c(CC(=O)Nc3ccc(F)cc3)coc2c1 | inactive: -14.8% | 
19 | Cc1ccc(-n2nc(C)c3nc(CCC(=O)Nc4cccc(C)c4C)c(=O)n(C)c32)cc1 | inactive: -2.4% | 
20 | CC(=O)Nc1cc(C(=O)NCc2ccccc2Cl)ccc1Sc1ccc(F)cc1 | inactive: -0.0809% | 
21 | Cc1ccc(NC(=O)c2cc(S(=O)(=O)N3CCCCC3)c[nH]2)cc1N(C)C | inactive: -1.77% | 
22 | Cc1cc(C)cc(NC(=O)c2cc(S(=O)(=O)NCCC3=CCCCC3)ccc2F)c1 | inactive: -15.8% | 
23 | Cc1nnc(NC(=O)CSc2nc3c([nH]c4ccccc43)c(=O)n2-c2ccc(Cl)cc2)s1 | inactive: 3.55% | 
24 | Cc1ccc2[nH]c(=O)c3cc(C(=O)N(C)c4ccc(Br)cc4)sc3c2c1 | inactive: 16% | 
25 | CCc1ccc(NC(=O)C2CCN(c3nc(-c4ccc(OC)cc4)no3)CC2)cc1 | inactive: 0.734% | 

Row | SMILES | activity change, negative = cytotoxicity | Potency
26 | COc1ccc2c(c1)CC(C(=O)NCc1ccc(F)cc1)CO2 (configuration not stated) | inactive: -4.12% | 
27 | Cc1cc(OCC(=O)Nc2ccc(C(=O)OC3CCCCC3)cc2)cc(C)c1Cl | inactive: 7.21% | 
28 | COc1ccc(CCNCc2c(C(=O)O)c(C)n(Cc3c(F)cccc3Cl)c2C)cc1OC | inactive: 2.62% | 
29 | Cc1cccc(C(=O)Nc2ccc3oc(-c4cccc5c(Br)cccc45)nc3c2)c1 | inactive: 9.33% | 
30 | O=c1c2cccnc2n(Cc2ccccc2F)c(=O)n1Cc1ccc(F)cc1 | inactive: 9.69% | 
31 | CCCCN1C(=O)c2[nH]nc(-c3ccccc3O)c2C1c1cc(Br)c(O)c(OC)c1 (configuration not stated) | inactive: -15.7% | 
32 | COc1cccc(CNC(=O)C(NS(=O)(=O)c2cccs2)C(C)C)c1 (configuration not stated) | inactive: 3.1% | 
33 | COc1cccc(CNC(=O)c2ccc3nc(N4CCCCC4)sc3c2)c1OC | inactive: 3.49% | 
34 | Cc1ccc(CN2CCSc3ccc(C(=O)N4CCN(c5ccc(Cl)cc5)CC4)cc32)cc1 | inactive: -25.7% | 
35 | COc1ccccc1NC(=O)c1cc(S(=O)(=O)NCCc2ccccc2)ccc1F | inactive: -8.48% | 
36 | O=S(=O)(Nc1ccc2nc(-c3ccc(F)cc3)oc2c1)c1ccccc1 | inactive: -0.619% | 
37 | CCOCCCNC(=O)C(c1ccc(OC)cc1)N(Cc1ccc2c(c1)OCO2)C(=O)c1ccc(NC(C)=O)cc1 (configuration not stated) | inactive: -16.3% | 
38 | CCCCc1nn2c(=O)cc(COC(=O)c3ccc(NC(=O)c4ccccc4Cl)cc3)nc2s1 | inactive: 19.5% | 
39 | COc1ccc(NC(=O)Cn2c3ncccc3c(=O)n2-c2ccc(C)c(C)c2)c(OC)c1 | inactive: -5.58% | 
40 | O=C(NC1(C(F)(F)F)C(=O)Nc2c1c(=O)[nH]c(=O)n2-c1ccc(F)cc1)c1ccccc1 (configuration not stated) | inactive: 4.46% | 
41 | COc1ccc(C2C(=O)N(C3CCCCC3)CC(=O)N2CCC2=CCCCC2)cc1 (configuration not stated) | inactive: -10.8% | 
42 | CCOc1ccc(-n2c(=O)c3sc4ccccc4c3n(Cc3cccc(C)c3)c2=O)cc1 | inactive: -1.97% | 
43 | Cc1ccc(OC(=O)c2cc(-c3ccc(Cl)cc3)on2)c(C)c1 | inactive: -0.641% | 
44 | Cc1cccc(N2CCN(C(=O)CCc3c(C)nc4c(c3C)c(=O)n(C)c(=O)n4C)CC2)c1C | inactive: 13.8% | 
45 | COc1ccc(-n2cc(C(=O)OCc3ccc(F)c(F)c3)c3ccccc3c2=O)cc1 | inactive: 3.29% | 
46 | CCc1ccc(NS(=O)(=O)c2ccc3[nH]cc(C(=O)NCCc4cccc(C)c4)c(=O)c3c2)cc1 | inactive: -0.894% | 
47 | O=C(NCc1ccccc1)C(=O)NCC(c1ccc2c(c1)OCO2)N1CCOCC1 (configuration not stated) | inactive: 25.4% | 
48 | CCN1CCN(c2oc(/C=C/c3ccc(OC)c(OC)c3)nc2C#N)CC1 | inactive: -0.466% | 
49 | COc1ccc2c(c1)sc1ncc(C(=O)NCc3ccc(Cl)cc3)c(=O)n12 | inactive: -1.16% | 
50 | Clc1ccc(-c2cn3ncsc3n2)cc1 | inactive: 0.0804% | 

Row | SMILES | activity change, negative = cytotoxicity | Potency
51 | CCOc1ccc(CCNC(=O)Cn2ncn3c(cc4sc(C)cc43)c2=O)cc1OCC | inactive: 1.65% | 
52 | O=C(NCCS(=O)(=O)N1CCN(c2ccccc2F)CC1)C(c1ccccc1)c1ccccc1 | inactive: 6.23% | 
53 | O=C(Nc1ccccc1Cl)c1cc(S(=O)(=O)N2CCC3(CC2)OCCO3)ccc1F | inactive: -17.7% | 
54 | Cc1ccc(NC(=O)CCNS(=O)(=O)c2ccc(Br)s2)cc1 | inactive: -0.572% | 
55 | CCOC(=O)C1CCCN(C(=O)c2cccc(NC(=O)c3nsc4ccccc34)c2)C1 (configuration not stated) | inactive: -12.4% | 
56 | Cc1ccc(-c2nc(NC(=O)CSc3ncnc4sc5c(c34)CCC(C)C5)ns2)cc1 (configuration not stated) | inactive: 12.9% | 
57 | CCOc1ccc(N(CC)S(=O)(=O)N2CCCC(C(=O)Nc3ccc(OC)c(OC)c3)C2)cc1 (configuration not stated) | inactive: 1.34% | 
58 | CCCCN(Cc1ccccc1)S(=O)(=O)c1cc(Br)cc2c1N(C(=O)C1CC1)CC2 | inactive: 0.34% | 
59 | CCOc1ccc(-n2ccn3c(CC(C)CC(=O)O)nnc3c2=O)cc1 (configuration not stated) | inactive: 4.02% | 
60 | COc1ccc2c(c1)c1c(c(=O)n(-c3ccc(C)cc3)c(=O)n1CC(=O)N1CCCC1)n2C | inactive: 0.0153% | 
61 | CCC12CN3CC(C)(CN(C1)C3c1ccccc1C)C2=O (configuration not stated) | inactive: 8.52% | 
62 | Cc1ccccc1-c1nc2cc(NC(=O)c3cccc(OCCC(C)C)c3)ccc2o1 | inactive: 2% | 
63 | Cc1ccc(S(=O)(=O)c2cnc(SC(C)C(=O)Nc3ccccc3)[nH]c2=O)cc1 (configuration not stated) | inactive: -0.0019% | 
64 | CCC(Cn1nnc2ccccc2c1=O)NC(=O)Nc1ccc(C)cc1 (configuration not stated) | inactive: -0.0933% | 
65 | CCOc1ccc(OCC)c(NC(=O)c2cc(CN3CCOCC3)on2)c1 | inactive: 7.94% | 
66 | O=C(CSc1nnc(CNC(=O)c2ccccc2F)n1-c1ccccc1)Nc1ccccc1F | inactive: -4.21% | 
67 | CCCNC(=O)CCn1nc(-c2ccccc2)c2ccccc2c1=O | inactive: -7.38% | 
68 | O=C(CCc1nnc2n(Cc3ccccc3Cl)c(=O)c3ccccc3n12)Nc1ccc(F)cc1 | inactive: 9.07% | 
69 | CC(=O)C1=C(c2ccc(Cl)c(Cl)c2)N(C(C)=O)n2c(nnc2C2CCCCC2)S1 | inactive: 10.4% | 
70 | CCCc1ccc(OC(C)C(=O)Nc2sc3c(c2C(=O)OC)CCCCC3)cc1 (configuration not stated) | inactive: 6.91% | 
71 | CCN1CCN(c2csc3ccc(C)cc3c2=O)CC1 | inactive: 13.9% | 
72 | Cc1ccc(-n2ncc(C(=O)Nc3ccc4c(c3)OCCO4)c2C2CCN(C(=O)OC(C)(C)C)CC2)cc1 | inactive: -20.4% | 
73 | COc1ccc(Br)cc1CNC(=O)CSc1cc(=O)n(C)c2ccccc12 | inactive: 3.19% | 
74 | Cc1ccccc1-c1noc(-c2cc3ccccc3oc2=O)n1 | inactive: 9.91% | 
75 | CCCCNC(=O)c1nn(-c2ccc(C)cc2)c(=O)c2c1c1ccccc1n2C |  | active: 15.8 µM

Row | SMILES | activity change, negative = cytotoxicity | Potency
76 | Cc1cccc(CNC(=O)c2cccc(NC(=O)N3CCSc4ncccc43)c2)c1 | inactive: -0.829% | 
77 | CSc1nc(Nc2cccc(C)c2)c(C#N)c(-c2ccccc2)n1 | inactive: -4.51% | 
78 | CNc1c(NC(=O)c2cc(OC)cc(OC)c2)c(=O)oc2ccccc12 | inactive: 9.6% | 
79 | Cn1c(SCC(=O)N2CCCc3ccccc32)ncc(C(=O)Nc2ccc(F)cc2)c1=O | inactive: -3.3% | 
80 | CC(=O)Nc1c(C)nn(-c2ccccc2)c1N1CCC(C(=O)Nc2ccc(F)cc2Cl)CC1 | inactive: -1.41% | 
81 | Cc1cccc(NC(=O)N2CCC(CN3CCC(C)CC3)CC2)c1C | inactive: 12.3% | 
82 | COc1ccc2c(c1)c(=O)c(S(=O)(=O)c1ccc(Cl)cc1)cn2C | inactive: -10.1% | 
83 | Cc1ccccc1CNC(=O)C1CCN(c2nnc(-n3c(C)ccc3C)s2)CC1 | inactive: -3.97% | 
84 | CCOC(=O)c1cccc(NC(=O)c2cc3cc4ccc(C)cc4nc3o2)c1 | inactive: 9.94% | 
85 | CCCn1c(SCc2nc(-c3cc(OC)ccc3OC)no2)nnc1-c1ccc(Cl)cc1 | inactive: -9.17% | 
86 | CCc1cccc(CC)c1NC(=O)C(CC)n1nc(C)n2c(cc3cc(C)ccc32)c1=O (configuration not stated) | inactive: -0.449% | 
87 | Cc1ccc2c(c1)C(c1ccccc1)N(C(=O)c1ccccc1F)CC(=O)N2 (configuration not stated) | inactive: -10.5% | 
88 | Cc1ccccc1NC(=O)CSc1nnc(C)c(=O)[nH]1 | inactive: -0.167% | 
89 | O=C(NCc1ccco1)C1CCN(C(=O)N2CCOc3ccccc32)CC1 | inactive: 12% | 
90 | Nc1c(-c2nc(-c3cccs3)no2)nnn1-c1ccccc1Cl | inactive: 4.47% | 
91 | Cc1ccc(Cl)cc1N(C)C(=O)Cn1nc(Cc2cccnc2)c2ccccc2c1=O | inactive: 25.2% | 
92 | CCOc1cccc(CNC(=O)c2ccc(N3CCCC3)c(NC(=O)NCc3ccc(F)cc3)c2)c1 | inactive: 8.85% | 
93 | O=C(Nc1cccc(C(=O)OCc2cc(=O)n3nc(C4CC4)sc3n2)c1)c1ccccc1 | inactive: 0.665% | 
94 | Cc1cc(C)cc(OC(C)C(=O)Nc2nonc2-c2ccc(Br)cc2)c1 (configuration not stated) | inactive: -3.65% | 
95 | CCOc1ccc(-c2nonc2NC(=O)c2oc3c(C)c(C)ccc3c2C)cc1OCC | inactive: -1.6% | 
96 | Cc1ccc(C)c(Cn2c3ccccc3c3cnn(CC(=O)NCCCc4ccccc4)c(=O)c32)c1 | inactive: 4.48% | 
97 | COc1ccccc1-c1nc2c3c(-c4ccccc4)c(-c4ccccc4)oc3ncn2n1 | inactive: 2.05% | 
